Data taken from FireProtDB (doi:10.1021/bi982078m).

Conditions: Gallus gallus, pH 2, 25 °C, Absorbance, HCl, reversible: yes

For “Lysozyme C wild type (sequence not shown)”, the denaturant m value (GdnHCl, KCl 0.1-1.0 M) was 2.03 kcal/mol/M, the “denaturant midpoint (higher = more stable)” value (“denaturant midpoint” for short) (GdnHCl, KCl 0.1-1.0 M) was 2.06 M and the unfolding free energy (GdnHCl, KCl 0.1-1.0 M) was 4.18 kcal/mol. For the same substance, the denaturant m value (Urea, KCl 0.30-0.50 M) was 1.1 kcal/mol/M, the “denaturant midpoint” value (Urea, KCl 0.30-0.50 M) was 3.98 M and the unfolding free energy (Urea, KCl 0.30-0.50 M) was 4.38 kcal/mol. For the same substance, the denaturant m value (Urea, KCl 0.75-1.00 M) was 1.13 kcal/mol/M, the “denaturant midpoint” value (Urea, KCl 0.75-1.00 M) was 4.68 M and the unfolding free energy (Urea, KCl 0.75-1.00 M) was 5.29 kcal/mol.
